We go through 44 compounds from PMC4336329 (PLoS ONE, 2015).

SMILES strings stand for the structures. The campaign covered roughly 310,000 compounds. About 2,200 (0.71%) showed an effect of 50% or more. Effects have a minus sign here. This is one part of the list.

Chain of human ether-à-go-go-related gene (hERG) potassium channel (Q12809 whole entry, looked up): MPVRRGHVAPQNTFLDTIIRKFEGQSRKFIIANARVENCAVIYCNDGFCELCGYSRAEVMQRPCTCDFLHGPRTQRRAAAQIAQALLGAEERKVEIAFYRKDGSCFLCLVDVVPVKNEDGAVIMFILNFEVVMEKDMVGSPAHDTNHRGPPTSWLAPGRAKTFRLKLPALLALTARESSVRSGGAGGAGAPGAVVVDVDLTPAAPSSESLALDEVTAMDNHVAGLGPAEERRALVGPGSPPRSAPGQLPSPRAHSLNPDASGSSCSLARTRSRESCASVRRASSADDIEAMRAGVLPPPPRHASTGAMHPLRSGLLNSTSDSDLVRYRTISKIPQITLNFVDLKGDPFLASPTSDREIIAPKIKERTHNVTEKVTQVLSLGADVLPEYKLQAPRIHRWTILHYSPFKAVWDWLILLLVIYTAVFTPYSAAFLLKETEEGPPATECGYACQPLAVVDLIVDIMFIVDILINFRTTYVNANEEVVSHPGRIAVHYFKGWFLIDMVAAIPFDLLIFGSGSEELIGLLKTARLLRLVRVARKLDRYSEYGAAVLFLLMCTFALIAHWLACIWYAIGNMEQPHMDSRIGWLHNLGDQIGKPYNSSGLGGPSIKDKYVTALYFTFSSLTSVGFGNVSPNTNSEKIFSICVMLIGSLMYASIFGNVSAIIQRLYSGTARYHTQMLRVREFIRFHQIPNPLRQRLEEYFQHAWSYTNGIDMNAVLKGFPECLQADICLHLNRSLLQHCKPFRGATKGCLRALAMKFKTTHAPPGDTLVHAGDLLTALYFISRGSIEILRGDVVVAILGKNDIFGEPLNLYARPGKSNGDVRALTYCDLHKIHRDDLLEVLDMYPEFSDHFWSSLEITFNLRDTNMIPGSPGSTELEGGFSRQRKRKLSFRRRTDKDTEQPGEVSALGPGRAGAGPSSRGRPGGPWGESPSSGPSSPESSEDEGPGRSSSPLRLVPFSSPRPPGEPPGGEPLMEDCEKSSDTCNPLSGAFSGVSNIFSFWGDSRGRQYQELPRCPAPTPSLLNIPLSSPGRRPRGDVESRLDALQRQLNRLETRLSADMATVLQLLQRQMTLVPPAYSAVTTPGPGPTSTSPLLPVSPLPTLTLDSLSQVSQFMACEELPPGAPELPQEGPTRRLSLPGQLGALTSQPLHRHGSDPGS

The assay concerns the target human ether-à-go-go-related gene (hERG) potassium channel (human, UniProt Q12809). Description: primary screen, population patch clamp on CHO cells stably expressing hERG.
In the case of `O=C(N/N=C/c1ccc(C(F)(F)F)cc1)c1ccncc1`, the “hERG current change (%, negative = inhibition) at 1uM” value was found to be 1.99%.
With `Cc1cccc(OCCC(=O)Nc2ccc(N3CCOCC3)cc2N2CCOCC2)c1` the figure was 12.4%; with `COc1ccc(NC(=O)c2ccccn2)cc1S(=O)(=O)N1CCOCC1`, 7.48%.
The result for `CCCC(=O)O[C@]1(C(=O)CO)CC[C@H]2[C@@H]3CCC4=CC(=O)CC[C@]4(C)[C@H]3[C@@H](O)C[C@@]21C` reads 11.3%; that for `COC(=O)c1[nH]c2ccccc2c1NS(=O)(=O)c1ccc(OC)cc1OC`, 2.35%; that for `O=C(Nc1ccc(S(=O)(=O)NCc2ccccc2)cc1)C1CCCCC1`, 17.1%.
Turning to `CC(C)(C)C(=O)Nc1ncc(C(F)(F)F)cc1Cl`, the “hERG current change (%, negative = inhibition) at 1uM” value was 3.37%.
As for `O=C(c1ccccc1)c1cc2ccccc2o1`, the “hERG current change (%, negative = inhibition) at 1uM” value was determined as 12.2%.
The result for `COc1ccccc1CN1CC(C(=O)N(C)Cc2ccncc2C)CCC1=O` (centres unmarked) reads 5.35%.
With `CCOC(=O)CN1N=C(/C=C/c2ccccc2)CCC1=O` the figure was -5.36%.
With `COc1cccc(CC2(CO)CCCN(Cc3cn[nH]c3-c3ccccc3)C2)c1` (centres unmarked) the figure was -6.05%; with `CO/N=C/C(C#N)=C/c1ccc(OC)c(OC)c1`, 12.5%.
Consider `O=C(NC1CCCCC1)Oc1cc2oc(=O)sc2cc1Cl`, for which the “hERG current change (%, negative = inhibition) at 1uM” value is on record as -3.99%.
Consider `COc1ccc(-c2noc(CSc3nnc(Cc4ccccc4)n3-c3cccc(C)c3)n2)cc1OC`, for which the “hERG current change (%, negative = inhibition) at 1uM” value stood at 3.88%.
`COc1cc(/C=C2\SC(=S)N(N3CCOCC3)C2=O)ccc1O`: the “hERG current change (%, negative = inhibition) at 1uM” value came to 5.44%.
As to `COc1ccc(-n2nc3c(c2NC(=O)c2ccc(Br)cc2)CS(=O)C3)cc1` (centres unmarked), the “hERG current change (%, negative = inhibition) at 1uM” value is recorded as -12.2%.
As for `Cc1nc2ncnn2c(C)c1CCC(=O)NCCCN1CCN(c2cccc(Cl)c2)CC1`, the “hERG current change (%, negative = inhibition) at 1uM” value is listed as 5.19%.
The result for `CCC(C(=O)NCCC(C)C)N(Cc1ccccc1Cl)C(=O)c1snc(C(N)=O)c1N` (centres unmarked) reads 14.4%; that for `CC(=NCCC1=CCCCC1)c1c(O)n(-c2ccccc2)c(=O)[nH]c1=O`, 13.4%.
In the case of `O=C(N/C(=C\c1ccc(Cl)cc1)C(=O)N1CCCCC1)c1ccco1`, the “hERG current change (%, negative = inhibition) at 1uM” value was 16.2%.
On to `CC(C)C(NC(=O)c1ccccc1F)C(=O)NCCc1ccccn1` (centres unmarked), for which the “hERG current change (%, negative = inhibition) at 1uM” value came out at 21.3%.
The result for `CCC1C(=O)NCCN1C(=O)c1ccc2nc(Cc3ccc(OC)cc3)oc2c1` (centres unmarked) reads 19.7%; that for `CCc1cccc(NC2c3ccccc3C(=O)N2c2cccnc2)c1` (centres unmarked), 2.77%.
The result for `O=C(NNC(=O)C1COc2ccccc2O1)c1ccccc1` (centres unmarked) reads -4.27%; that for `Cn1c(N)c(C(=O)Nc2c(Cl)cccc2Cl)sc1=S`, 15%; that for `COC(=O)CSc1nc(SCc2ccc(C)cc2)nc2c1CCCC2`, 4.94%.
With `O=C(NC(Cc1ccccc1)C(=O)NCCc1ccccn1)c1ccccc1` (centres unmarked), the “hERG current change (%, negative = inhibition) at 1uM” value worked out at 8.66%.
Consider `COc1ccc(CCN(C)C2CCCN(S(=O)(=O)c3ccc(C)cc3)C2)cc1OC` (centres unmarked), for which the “hERG current change (%, negative = inhibition) at 1uM” value is -82.1%.
With `COc1ccc(-c2nn(CCC#N)cc2/C=N/O)cc1` the figure was 18.4%.
With `CNC(=O)CC1C(=O)N(c2ccc(Cl)cc2)C(=S)N1NC(=O)c1cccc(F)c1` (centres unmarked) the figure was 10.6%; with `C=CCNCc1cccn1-c1sc2c(c1C#N)CCCC2`, 4.13%.
Turning to `O=C(CCCC(=O)OCC(=O)c1ccc(F)cc1)Nc1cc(C(F)(F)F)ccc1Cl`, the “hERG current change (%, negative = inhibition) at 1uM” value stood at 12%.
As for `Cc1ccc(/C=N/Nc2cccc(C(=O)O)c2)s1`, the “hERG current change (%, negative = inhibition) at 1uM” value turned out to be 20.8%.
Take `CSc1nc(NC(C)C)nc(N2CCOCC2)n1`: the “hERG current change (%, negative = inhibition) at 1uM” value is 3.59%.
For the compound `CCNC(=O)COC(=O)c1cc(-c2ccccc2)nn1-c1ccccc1`, the “hERG current change (%, negative = inhibition) at 1uM” value is recorded as 12.3%.
With `C/C(=N/OC(=O)c1ccc(C)cc1)c1cccs1` the figure was 10.7%; with `CC(C)CN(C(=O)CC(C)c1ccccc1)c1c(N)n(Cc2ccccc2)c(=O)[nH]c1=O` (centres unmarked), 7.76%; with `Cc1sc2nc(-c3cccnc3)nc(Cl)c2c1-c1ccccc1`, 11.3%.
The result for `COCCn1c(SCC(=O)Nc2cc(C)cc(C)c2)nc2ccccc2c1=O` reads -11.6%.
For the compound `Cc1cccc(-n2c(O)c(C=Nc3ccc(S(N)(=O)=O)cc3)c(=O)[nH]c2=O)c1`, the “hERG current change (%, negative = inhibition) at 1uM” value is given as 15.5%.
`Cl.N=c1sccn1Cc1ccc(Cl)cc1Cl`: the “hERG current change (%, negative = inhibition) at 1uM” value is on record as -3.04%.
The result for `Cc1ccc(OCCC(=O)OCC(=O)c2c(N)n(C)c(=O)n(C)c2=O)cc1` reads -11.3%; that for `C(=N\Nc1ccccc1)/c1nc2ccccc2s1`, 7.08%.
With `O=c1ccc2ccc(Oc3ccc([N+](=O)[O-])cc3[N+](=O)[O-])cc2o1` the figure was -16.6%.
